Test results: the supplement of paper PMC7826260
This is one part of the list. Viral Rep nickase domains cut single-stranded DNA in vitro (1 h at 37 °C, 3 µM enzyme); the outer parts of the 90-letter strands are left off. A value is the log2 ratio of uncut reads to the pool without enzyme; more negative means more cut, near 0 not cut, and no call is made. The scaling is to total reads; where an enzyme cuts many sequences, the uncut ones exceed 0.

How the values were obtained:
Test in all cases: uncleaved DNA left, log2 of reads against the no-enzyme library (log2 ratio); higher = less cleavage (more negative = more Rep cleavage of the k-mer); sequences stand for … in CTCGTCCG…ACCGGAGA
[1] = test system: T1, Rep nickase domain of Muscovy duck circovirus
T1 sequence (residues 1-111, tag not shown): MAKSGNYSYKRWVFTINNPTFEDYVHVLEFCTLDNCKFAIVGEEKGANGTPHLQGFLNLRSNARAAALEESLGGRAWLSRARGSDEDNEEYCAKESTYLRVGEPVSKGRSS
Description: (§1)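 A pool of 90-nt single-stranded DNAs with seven random bases just before the constant AC of the nick site (name = the seven bases) was cut by 3 µM recombinant His6-SUMO-tagged Rep nickase domain (300 nM DNA, 50 mM HEPES pH 8.0, 50 mM NaCl, 1 mM MnCl2, 1 h, 37 °C, three replicates). Uncut DNA was amplified and sequenced.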

[2] = test system: T2, Rep nickase domain of banana bunchy top virus
T2 sequence (residues 1-94, tag not shown): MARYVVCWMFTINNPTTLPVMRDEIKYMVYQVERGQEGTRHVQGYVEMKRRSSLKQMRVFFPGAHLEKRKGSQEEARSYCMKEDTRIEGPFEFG
Description: as §1

[3] = test system: T3, Rep nickase domain of cabbage leaf curl virus
T3 sequence (residues 1-116, tag not shown): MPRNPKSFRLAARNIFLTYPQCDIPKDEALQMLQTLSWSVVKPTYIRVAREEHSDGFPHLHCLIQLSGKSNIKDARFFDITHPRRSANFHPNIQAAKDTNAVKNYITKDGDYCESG
Description: as §1

[4] = test system: T4, Rep nickase domain of chickpea chlorotic dwarf virus
T4 sequence (residues 1-124, tag not shown): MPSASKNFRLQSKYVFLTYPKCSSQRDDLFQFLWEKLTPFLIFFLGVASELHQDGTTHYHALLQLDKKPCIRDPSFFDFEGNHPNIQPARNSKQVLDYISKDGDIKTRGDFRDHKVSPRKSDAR
Description: as §1

[5] = test system: T5, Rep nickase domain of faba bean necrotic yellows virus
T5 sequence (residues 1-98, tag not shown): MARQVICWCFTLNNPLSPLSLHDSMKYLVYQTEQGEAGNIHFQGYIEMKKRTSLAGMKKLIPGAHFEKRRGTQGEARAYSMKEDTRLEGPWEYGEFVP
Description: as §1

[6] = test system: T6, Rep nickase domain of maize striate mosaic virus
T6 sequence (residues 1-117, tag not shown): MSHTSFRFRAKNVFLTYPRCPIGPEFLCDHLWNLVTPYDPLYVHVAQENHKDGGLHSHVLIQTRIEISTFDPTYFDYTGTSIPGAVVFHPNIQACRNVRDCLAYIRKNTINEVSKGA
Description: as §1

[7] = test system: T7, Rep nickase domain of porcine circovirus 2
T7 sequence (residues 2-116, tag not shown): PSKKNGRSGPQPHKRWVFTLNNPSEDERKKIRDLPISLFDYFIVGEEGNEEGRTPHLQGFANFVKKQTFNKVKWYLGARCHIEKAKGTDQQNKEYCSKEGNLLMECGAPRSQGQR
Description: as §1

[8] = test system: T8, Rep nickase domain of tomato yellow leaf curl virus
T8 sequence (residues 1-136, tag not shown): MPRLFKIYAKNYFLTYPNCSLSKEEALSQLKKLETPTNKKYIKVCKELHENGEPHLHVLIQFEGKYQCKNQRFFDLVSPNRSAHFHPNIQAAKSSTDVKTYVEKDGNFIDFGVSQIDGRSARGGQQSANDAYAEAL
Description: as §1

[9] = test system: T9, Rep nickase domain of wheat dwarf virus
T9 sequence (residues 1-137, tag not shown): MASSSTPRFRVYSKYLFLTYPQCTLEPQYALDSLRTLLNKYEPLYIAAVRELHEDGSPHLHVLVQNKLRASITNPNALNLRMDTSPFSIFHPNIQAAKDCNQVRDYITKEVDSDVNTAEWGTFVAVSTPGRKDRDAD
Description: as §1

Sequence	uncleaved DNA left (log2) [1]	uncleaved DNA left (log2) [2]	uncleaved DNA left (log2) [3]	uncleaved DNA left (log2) [4]	uncleaved DNA left (log2) [5]	uncleaved DNA left (log2) [6]	uncleaved DNA left (log2) [7]	uncleaved DNA left (log2) [8]	uncleaved DNA left (log2) [9]
TTGGAGA	0.0168	-0.129	-0.0427	-0.0148	-0.0492	-0.725	0.0804	-0.0782	-0.0733
GTGAGAA	0.0769	0.129	0.499	1.15	0.0247	1.66	0.116	0.196	0.188
GGCATTC	0.0516	0.113	0.766	1.86	0.00422	2.18	0.199	0.0436	0.148
CCTTGAA	-0.158	-0.205	-0.279	-0.756	-0.0852	-0.959	-0.151	-0.239	-0.177
CGAGAGT	0.0641	0.09	0.0558	0.0126	0.00193	-0.125	0.0277	0.0921	0.116
CAAGTAT	0.0828	-0.0476	-0.386	-1.14	0.0435	0.41	-0.00941	-0.0962	-0.117
TAGGTTA	0.118	0.0181	0.3	-0.109	0.00463	1.39	-0.288	-0.0476	0.121
CGACGGC	-0.0608	-0.0329	0.0549	0.508	-0.019	1.19	0.102	-0.0671	-0.0262
ACACATC	0.0075	-0.0239	-0.34	-0.351	0.0442	-0.927	0.037	-0.0263	0.0123
CATACGA	0.103	0.0643	-0.0138	-0.548	0.0461	-1	0.236	0.0416	-0.0312
CCACGAC	-0.0262	-0.224	-0.0692	-0.243	-0.167	-0.836	-0.0119	-0.176	-0.12
CGCCAGT	0.0553	0.0265	-0.0906	-0.151	-0.0168	-0.153	-0.0506	-0.0304	-0.0409
CTTTGGC	-0.202	-0.201	-0.544	-0.837	-0.0243	-1.28	-0.0154	-0.103	-0.224
GAGACGT	0.066	0.224	0.904	2.08	0.0729	2.23	0.135	0.117	0.316
TAACGGT	0.0756	0.122	-0.637	-1.97	0.0088	1.45	0.0852	-0.0555	-0.0842
TCTTGAA	0.106	0.086	0.134	-0.446	0.137	-0.524	0.0584	0.192	0.0352
ACTAAGT	0.14	0.0021	-0.00451	-0.229	0.0986	-0.887	-0.411	0.034	0.00629
CTATCTA	-0.116	0.0929	-0.0878	-1.22	0.0201	-0.502	-0.151	0.0842	0.117
GAAACTT	-0.0694	-0.128	-1.87	-2.1	-0.00675	0.909	-1.99	0.0546	-0.497
ACTAACT	-0.0786	-0.169	-0.72	-2.69	-0.0482	-0.857	-1.38	-0.103	-0.0408
CGAGTCT	0.0849	0.0226	-0.0997	-0.898	0.184	-0.066	0.00652	0.0441	0.0852
AGTTTGC	0.033	-0.0557	-0.719	-0.273	-0.0498	-1.22	0.0355	0.0124	-0.206

Sequence	uncleaved DNA left (log2) [1]	uncleaved DNA left (log2) [2]	uncleaved DNA left (log2) [3]	uncleaved DNA left (log2) [4]	uncleaved DNA left (log2) [5]	uncleaved DNA left (log2) [6]	uncleaved DNA left (log2) [7]	uncleaved DNA left (log2) [8]	uncleaved DNA left (log2) [9]
TACGTAC	0.00792	-0.0755	-0.245	-0.314	0.0362	-0.958	-0.0624	0.000945	0.044
CAACTAT	-0.0655	-0.0179	-0.706	-2.89	-0.131	-0.759	-0.248	-0.175	-0.304
GAACTTG	0.0639	-0.0492	-0.126	-0.716	-0.0764	-0.267	-0.00228	-0.0573	0.0159
CGAAAGC	0.0416	0.153	0.133	0.403	0.0609	-0.257	0.19	0.124	0.196
TCTGAAG	0.0559	-0.124	-0.858	-0.518	0.0499	-1	0.156	0.01	-0.122
CCTAGCA	0.0188	0.0349	-0.372	-0.886	-0.152	-1.15	-0.00982	-0.0049	-0.00572
TGTAAAA	-0.0102	0.0275	0.266	0.297	-0.0213	-0.0285	0.0818	0.0694	0.168
ACGGCTA	0.024	-0.0247	-0.149	-0.557	-0.168	-0.368	-0.0616	-0.174	-0.133
GTGAAGG	-0.0836	0.142	0.34	1.12	0.0674	1.27	0.13	0.12	0.0929
TCTTTAG	0.0433	-0.0819	-0.404	-0.621	0.0739	-1.15	0.142	0.112	-0.00215
AGGCGAC	-0.0885	-0.0312	-0.114	0.573	-0.115	0.688	0.0886	-0.125	-0.0687
CATCAGA	0.13	0.0306	-0.412	-0.695	0.0318	-1.06	0.0794	0.00678	-0.0588
TCCAGGT	-0.013	-0.114	0.327	1.27	-0.0827	1.64	0.107	-0.121	0.0252
CCGGGCA	0.08	-0.0564	0.466	0.729	-0.03	1.38	-0.074	-0.116	-0.0222
TAAGATG	0.0936	0.18	0.384	1.31	0.0868	1.52	0.272	-0.0308	0.209
CATACAG	0.0906	0.0354	-0.982	-0.953	0.0335	-1.08	0.175	0.0684	-0.144
CCCGGTT	0.183	0.0651	0.025	-0.288	0.0679	0.724	0.0491	-0.044	-0.00849
GCTCTAT	-0.0621	0.0629	0.147	0.255	0.0912	0.404	-0.0236	-0.085	-0.0196
TCCGCGG	0.0414	-0.0257	0.332	1.07	0.0216	1.29	0.0998	-0.0602	-0.104
GAGCCGA	0.171	0.221	0.136	0.152	0.0364	-0.132	0.0599	0.169	0.164
GTCTCGT	-0.0836	-0.0313	0.226	0.658	-0.0234	1.64	0.0419	0.07	-0.0362
GTTGCCC	-0.0495	0.00324	0.158	0.508	0.0857	0.259	-0.108	0.0224	0.0147

Sequence	uncleaved DNA left (log2) [1]	uncleaved DNA left (log2) [2]	uncleaved DNA left (log2) [3]	uncleaved DNA left (log2) [4]	uncleaved DNA left (log2) [5]	uncleaved DNA left (log2) [6]	uncleaved DNA left (log2) [7]	uncleaved DNA left (log2) [8]	uncleaved DNA left (log2) [9]
TTAGAGG	0.0113	-0.15	0.388	1.12	-0.00588	1.27	0.0538	-0.228	-0.0678
GCGGTCG	0.0223	0.00989	-0.57	-0.172	-0.00391	-0.462	0.128	0.0505	-0.118
ATGCTTA	-0.0631	-0.247	-0.331	-1.37	-0.132	-0.696	-0.361	-0.111	-0.218
CATCTAT	-0.0238	-0.0316	-0.188	-1.58	-0.0948	-0.747	-0.409	-0.119	-0.0779
GAAGATA	0.134	0.102	0.215	-0.857	0.156	1.05	0.19	0.147	0.102
TCATGCT	-1.2	-0.167	-2.36	-2.84	-0.0279	-1.6	-1.41	-0.00159	-0.197
ACGGAAA	-0.0426	0.0167	0.0205	0.317	-0.0311	-0.173	0.153	-0.133	-0.0296
CTTAAAG	-0.124	0.0603	-0.652	-0.494	-0.0351	-1.07	0.169	0.0398	-0.0928
CGCACGG	0.0455	0.104	0.346	1.03	0.0426	1.67	0.143	0.0299	0.046
GACTGCC	-0.0533	-0.102	-0.0626	0.294	-0.0854	0.325	-0.055	-0.128	-0.115
TAATCCT	-4.04	-0.868	-5.26	-3.71	-0.2	-3.58	-4.32	-1.38	-4.59
TAATCGT	-1.91	-0.0357	-4.12	-3.13	0.0368	-3.23	-3.61	-0.185	-3.88
AGAGGGA	0.124	0.131	0.453	1.04	0.097	1.25	0.202	0.0781	0.118
GGCATGG	0.00135	0.0968	0.24	0.8	-0.0587	0.91	0.157	0.0671	0.0152
TGAAACT	0.0359	0.0552	0.326	-1.97	0.0457	0.857	-0.0665	0.0497	-0.00667
AAGCCTT	-0.105	-0.148	-0.0306	-1.62	-0.125	0.524	-3.3	-0.172	-0.0773
AATAGCA	0.0391	0.029	-0.485	-1.43	0.1	-1.13	-0.0912	0.0731	0.0212
GGGCTGT	0.09	0.105	0.828	1.82	-0.0256	2.2	0.211	0.0685	0.221
TGGACAT	-0.114	-0.0568	0.781	2.11	-0.102	2.3	0.0834	-0.112	0.1
CCCCTCT	-0.107	-0.0502	-0.139	-1.99	-0.0923	-0.655	-0.206	-0.134	-0.148
